According to US11000038B2, “Pyridone compounds and agricultural and horticultural fungicides containing the same as active ingredients” (priority 2017, dated 2021):

Experiments:
[1] = tested on: rice blast fungi (Magnaporthe grisea); format: in vivo; conditions: rice blast, spray treatment
[2] = tested on: tomato late blight fungi (Phytophthora infestans); format: in vivo; conditions: tomato late blight, spray treatment
[3] = tested on: cucumber anthracnose fungi (Colletotrichum orbiculare); assay: Test Example H: cucumber anthracnose, spray treatment of cucumber plants; conditions: cucumber anthracnose, 250 ppm spray, 6 to 10 days after inoculation

SMILES	Test A control value [1]	Test F control value [2]	Test H control value [3]
Cc1cn(-c2ccccc2)c(-c2ccccc2)c(C)c1=O [Compound 537]	L (L shows the control value of 50% or less)	H (H shows the control value of more than 50%)	L (L shows the control value of 50% or less)
CCc1c(-c2ccccc2)n(-c2ccccc2Cl)cc(C)c1=O [Compound 538]	L (L shows the control value of 50% or less)	L (L shows the control value of 50% or less)	H (H shows the control value of more than 50%)
CCc1c(-c2c(F)cccc2F)n(-c2cc(C)ccc2C)cc(Br)c1=O [Compound 539]	L (L shows the control value of 50% or less)	L (L shows the control value of 50% or less)	H (H shows the control value of more than 50%)
CCc1c(-c2c(F)cccc2F)n(-c2cc(C)ccc2C)cc(C)c1=O [Compound 540]	L (L shows the control value of 50% or less)	L (L shows the control value of 50% or less)	H (H shows the control value of more than 50%)
CCc1c(-c2c(F)cccc2F)n(-c2cc(F)ccc2C)cc(Br)c1=O [Compound 541]	L (L shows the control value of 50% or less)	L (L shows the control value of 50% or less)	L (L shows the control value of 50% or less)
CCc1c(-c2c(F)cccc2F)n(-c2cc(F)ccc2C)cc(C)c1=O [Compound 542]	L (L shows the control value of 50% or less)	L (L shows the control value of 50% or less)	L (L shows the control value of 50% or less)
CCc1c(-c2ccccc2)n(-c2cc(OC)ccc2C)cc(C)c1=O [Compound 543]	H (H shows the control value of more than 50%)	L (L shows the control value of 50% or less)	H (H shows the control value of more than 50%)
CCc1c(-c2ccccc2)n(-c2cccc(F)c2C)cc(C)c1=O [Compound 544]	L (L shows the control value of 50% or less)	H (H shows the control value of more than 50%)	H (H shows the control value of more than 50%)
CCc1c(-c2ccccc2)n(-c2cccc(Cl)c2C)cc(C)c1=O [Compound 545]	L (L shows the control value of 50% or less)	L (L shows the control value of 50% or less)	H (H shows the control value of more than 50%)
COc1cccc(-n2cc(C)c(=O)c(C)c2-c2ccccc2)c1C [Compound 546]	H (H shows the control value of more than 50%)	L (L shows the control value of 50% or less)	H (H shows the control value of more than 50%)
CCc1c(-c2c(F)cc(F)cc2F)n(-c2cccc(Cl)c2C)cc(C)c1=O [Compound 547]	H (H shows the control value of more than 50%)	L (L shows the control value of 50% or less)	H (H shows the control value of more than 50%)
CCc1c(-c2c(F)cc(F)cc2F)n(-c2cccc(Br)c2C)cc(Br)c1=O [Compound 548]	H (H shows the control value of more than 50%)	L (L shows the control value of 50% or less)	H (H shows the control value of more than 50%)
CCc1c(-c2c(F)cccc2F)n(-c2cccc(OC)c2C)cc(Br)c1=O [Compound 549]	L (L shows the control value of 50% or less)	H (H shows the control value of more than 50%)	H (H shows the control value of more than 50%)
CCc1c(-c2c(F)cccc2F)n(-c2cccc(F)c2C)cc(Br)c1=O [Compound 550]	H (H shows the control value of more than 50%)	L (L shows the control value of 50% or less)	H (H shows the control value of more than 50%)
CCc1c(-c2c(F)cccc2F)n(-c2cccc(OC)c2C)cc(C)c1=O [Compound 551]	H (H shows the control value of more than 50%)	H (H shows the control value of more than 50%)	H (H shows the control value of more than 50%)
CCc1c(-c2c(F)cccc2F)n(-c2cccc(F)c2C)cc(C)c1=O [Compound 552]	H (H shows the control value of more than 50%)	L (L shows the control value of 50% or less)	H (H shows the control value of more than 50%)
CCc1c(-c2ccccc2)n(-c2cc(Cl)ccc2C)cc(Br)c1=O [Compound 553]	L (L shows the control value of 50% or less)	L (L shows the control value of 50% or less)	L (L shows the control value of 50% or less)

SMILES	Test A control value [1]	Test F control value [2]	Test H control value [3]
CCc1c(-c2c(F)cc(F)cc2F)n(-c2cccc(F)c2C)cc(C)c1=O [Compound 554]	H (H shows the control value of more than 50%)	H (H shows the control value of more than 50%)	H (H shows the control value of more than 50%)
CCc1c(-c2c(F)cccc2F)n(-c2ccccc2)cc(C)c1=O [Compound 555]	H (H shows the control value of more than 50%)	H (H shows the control value of more than 50%)	H (H shows the control value of more than 50%)
CCc1c(-c2c(F)cc(F)cc2F)n(-c2cc(Cl)ccc2C)cc(Br)c1=O [Compound 556]	H (H shows the control value of more than 50%)	H (H shows the control value of more than 50%)	H (H shows the control value of more than 50%)
CCc1c(-c2ccccc2)n(-c2ccccc2)cc(Br)c1=O [Compound 557]	L (L shows the control value of 50% or less)	L (L shows the control value of 50% or less)	H (H shows the control value of more than 50%)
CCc1c(-c2c(F)cccc2F)n(-c2cc(OC)ccc2C)cc(Br)c1=O [Compound 558]	H (H shows the control value of more than 50%)	H (H shows the control value of more than 50%)	H (H shows the control value of more than 50%)
CCc1c(-c2ccccc2)n(-c2ccccc2)cc(C)c1=O [Compound 559]	L (L shows the control value of 50% or less)	L (L shows the control value of 50% or less)	H (H shows the control value of more than 50%)
CCc1c(-c2c(F)cccc2F)n(-c2cc(OC)ccc2C)cc(C)c1=O [Compound 560]	H (H shows the control value of more than 50%)	L (L shows the control value of 50% or less)	H (H shows the control value of more than 50%)
CCc1c(-c2c(F)cccc2F)n(-c2cc(Br)ccc2C)cc(Br)c1=O [Compound 561]	H (H shows the control value of more than 50%)	L (L shows the control value of 50% or less)	H (H shows the control value of more than 50%)
CCc1c(-c2ccccc2)n(-c2cccc(OC)c2C)cc(Br)c1=O [Compound 562]	L (L shows the control value of 50% or less)	L (L shows the control value of 50% or less)	L (L shows the control value of 50% or less)
CCc1c(-c2ccccc2)n(-c2cccc(OC)c2C)cc(C)c1=O [Compound 563]	H (H shows the control value of more than 50%)	L (L shows the control value of 50% or less)	H (H shows the control value of more than 50%)
CCc1c(-c2ccccc2)n(-c2cc(F)ccc2C)cc(Br)c1=O [Compound 564]	L (L shows the control value of 50% or less)	L (L shows the control value of 50% or less)	H (H shows the control value of more than 50%)
Cc1c(Br)cccc1-n1cc(C)c(=O)c(C)c1-c1ccccc1 [Compound 565]	H (H shows the control value of more than 50%)	L (L shows the control value of 50% or less)	L (L shows the control value of 50% or less)
CCc1c(-c2ccccc2)n(-c2ccccc2C)cc(C)c1=O [Compound 566]	H (H shows the control value of more than 50%)	L (L shows the control value of 50% or less)	H (H shows the control value of more than 50%)
O=c1c(Br)cn(-c2ccccc2)c(-c2ccc(F)cc2Cl)c1Cl [Compound 567]	H (H shows the control value of more than 50%)	L (L shows the control value of 50% or less)	H (H shows the control value of more than 50%)
CCc1c(-c2ccccc2)n(-c2cc(Cl)ccc2C)cc(C)c1=O [Compound 568]	H (H shows the control value of more than 50%)	L (L shows the control value of 50% or less)	H (H shows the control value of more than 50%)
O=c1c(Br)cn(-c2ccccc2)c(-c2ccc(F)cc2Br)c1Cl [Compound 569]	H (H shows the control value of more than 50%)	L (L shows the control value of 50% or less)	H (H shows the control value of more than 50%)
CCc1c(-c2c(F)cc(F)cc2F)n(-c2cc(Cl)ccc2C)cc(C)c1=O [Compound 570]	H (H shows the control value of more than 50%)	L (L shows the control value of 50% or less)	H (H shows the control value of more than 50%)
